# Experimental data reported in PubChem BioAssay (Tox21).
# “And” between values parts separate entries of the source, which are not always exact repeats. Equal values may be shown once. The inconclusive results got no clear call from the source; some entries with a clear call stand among them for comparison. For part of these data: Potencies beside an inconclusive call are fits to weak or partial responses and may not hold up. The source made the active and inactive calls. Unless noted, calls follow the shape of the dose curve; as a rule, active = well fitted curve in the direction sought with a large enough effect in the repeat runs; inconclusive = weak or mixed curves; inactive = no such curve, though single readings can be large; an effect the other way counts as inactive or inconclusive.
# How the values were obtained:
# [1] = qHTS assay to identify small molecule agonists of the peroxisome proliferator-activated receptor delta (PPARd) signaling pathway - cell viability counter screen (AID 743211); conditions: PPARd-bla HEK293H viability, CellTiter-Glo luminescence, 17 h; activity change, negative = cytotoxicity: at 62.6 µM (top of the series); also: potency is read from the fitted curve at half-maximal effect; nearly all actives have a fitted effect of over 55% in size
# Procedure, shortened: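 HEK293H PPARd-bla, 3000 cells/well; 5 h preincubation 37C/5% CO2; cpd in DMSO, 17 h 37C; B/G FRET substrate 2 h RT; CellTiter-Glo 30 min RT, luminescence.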
# [2] = qHTS assay to identify small molecule agonists of the farnesoid-X-receptor (FXR) signaling pathway - cell viability counter screen (AID 743218); conditions: FXR-bla HEK293T viability, CellTiter-Glo luminescence, 16 h; viability change, negative = cytotoxic: at 62.6 µM (top of the series) unless noted; also: nearly all actives have a fitted effect of over 45% in size; also: potency is read from the fitted curve at half-maximal effect
# Procedure, shortened: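 In GeneBLAzer FXR-UAS-bla HEK 293T cells, compounds act for 16 h at 37 C. Cell viability is then scored in the reporter wells by CellTiter-Glo, 30 min at RT, luminescence.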
# [3] = target: Vitamin D3 receptor (Homo sapiens) (UniProt P11473); assay: qHTS assay to identify small molecule antagonists of the vitamin D receptor (VDR) signaling pathway (AID 743223; active = well fitted inhibition curve with a large enough effect in the signal ratio in the repeat runs, not every such curve was filed as active; inconclusive = weak or mixed curves, or effect the other way; inactive = no such curve, though single readings can be large or run the other way; the % refers to the signal ratio; also: % is scaled to controls: 0 for no effect and ±100 for the full control effect); conditions: VDR-UAS-bla HEK293T, beta-lactamase FRET ratio, 16 h; activity change, negative = inhibition: at 61 µM (top of the series) unless noted
# Procedure, shortened: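 Antagonist mode uses 1alpha,25-dihydroxyvitamin D3 at 3 nM final as stimulus. VDR-bla cells receive compounds in DMSO, incubate 16 h at 37C, then a beta-lactamase FRET substrate for 2 h at room temperature before fluorescence measurement.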
# [4] = target: Nuclear receptor ROR-gamma (Homo sapiens) (UniProt P51449); assay: qHTS assay to identify small molecule antagonists of the retinoid-related orphan receptor gamma (ROR-gamma) signaling pathway (AID 1159521; also: nearly all actives have a fitted effect of over 50% in size; also: potency is read from the fitted curve at half-maximal effect); conditions: Tet-on RORgamma CHO cells, RORE-luciferase, 16 h; series mostly up to 92.4 µM
# Procedure, shortened: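 CHO Tet-on RORγ, RORE-luc reporter. Cpd 2 h pre-incubation, then dox hyclate 1 uM final, 16 h, 37 C/5% CO2. ONE-Glo luminescence; decrease = antagonist.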
# [5] = qHTS assay for small molecule activators of the heat shock response signaling pathway (AID 743210; active = well fitted activation curve with a large enough effect in the signal ratio in the repeat runs, with a control signal flat, not every such curve was filed as active; inconclusive = weak or mixed curves; the % refers to the signal ratio;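 also: HeLa cells with beta-lactamase reporter driven by heat shock elements; % is scaled to controls: 0 for no effect and ±100 for the full control effect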); conditions: HeLa HSE-bla reporter, beta-lactamase ratio, 5 h; activation: at 62.6 µM (top of the series) unless noted
# Procedure, shortened: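 Quantitative high-throughput format using an engineered HeLa line in which heat shock response elements drive beta-lactamase; after 5 h with compound, cells received a B/G FRET substrate and fluorescence was read.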
# [6] = target: Bile acid receptor (Homo sapiens) (UniProt Q96RI1); assay: qHTS assay to identify small molecule antagonists of the farnesoid-X-receptor (FXR) signaling pathway (AID 743217; active = well fitted inhibition curve with a large enough effect in the signal ratio in the repeat runs, not every such curve was filed as active; inconclusive = weak or mixed curves, or effect the other way; inactive = no such curve, though single readings can be large or run the other way; the % refers to the signal ratio; also: % is scaled to controls: 0 for no effect and ±100 for the full control effect); conditions: HEK293T FXR-UAS-bla, beta-lactamase ratio, CDCA-stimulated, 16 h; activity change, negative = inhibition: at 62.6 µM (top of the series) unless noted
# Procedure, shortened: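 Beta-lactamase reporter under UAS control in HEK 293T cells; compound exposure 16 h at 37 °C in the presence of chenodeoxycholic acid (50 uM final); signal from B/G FRET substrate after 2 h at room temperature.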
# [7] = target: Bile acid receptor (Homo sapiens) (UniProt Q96RI1); assay: qHTS assay to identify small molecule agonists of the farnesoid-X-receptor (FXR) signaling pathway (AID 743220; active = well fitted activation curve with a large enough effect in the signal ratio in the repeat runs, not every such curve was filed as active; inconclusive = weak or mixed curves, or effect the other way; the % refers to the signal ratio; also: potency is read from the fitted curve at half-maximal effect); conditions: HEK293T FXR-UAS-bla, beta-lactamase FRET ratio, 16 h; activation: at 62.6 µM (top of the series)
# Procedure, shortened: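 Beta-lactamase reporter under UAS control in GeneBLAzer FXR HEK 293T cells (5000/well) measured with LiveBLAzer FRET substrate after 2 h at room temperature. Compound exposure lasted 16 h at 37C.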
# [8] = qHTS assay to identify small molecule agonists of the vitamin D receptor (VDR) signaling pathway - cell viability counter screen (AID 743224); conditions: VDR-bla HEK293T viability, CellTiter-Glo luminescence, 16 h; activity change, negative = cytotoxicity: at 62.6 µM (top of the series); also: nearly all actives have a fitted effect of over 50% in size; also: potency is read from the fitted curve at half-maximal effect
# Procedure, shortened: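 VDR-bla cell line, quantitative HTS format; 16 h compound incubation (37C, 5% CO2); ATP-based CellTiter-Glo luminescence measured in the reporter assay wells.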
# [9] = qHTS assay for small molecule agonists of the antioxidant response element (ARE) signaling pathway (AID 743202; active = well fitted activation curve with a large enough effect in the signal ratio in the repeat runs, not every such curve was filed as active; inconclusive = weak or mixed curves, or effect the other way; inactive = no such curve, though single readings can be large or run the other way; the % refers to the signal ratio; also: % is scaled to controls: 0 for no effect and ±100 for the full control effect); conditions: HepG2 ARE-bla reporter, beta-lactamase FRET, 16 h; activation: at 73.3 µM (top of the series) unless noted
# Procedure, shortened: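 Agonist mode reporter screen: HepG2 cells with ARE-controlled beta-lactamase are incubated with test compounds for 16 h at 37 C, and beta-lactamase activity is measured as fluorescence of cleaved B/G FRET substrate.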
# [10] = qHTS assay to identify small molecule antagonists of the vitamin D receptor (VDR) signaling pathway - cell viability counter screen (AID 743225); conditions: VDR-bla HEK293T viability, CellTiter-Glo luminescence, 16 h; viability change, negative = cytotoxic: at 61 µM (top of the series) unless noted; also: nearly all actives have a fitted effect of over 50% in size; also: potency is read from the fitted curve at half-maximal effect
# Procedure, shortened: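 Read-out: CellTiter-Glo luminescence measured 30 min after reagent addition at room temperature. Cells were VDR-bla HEK 293T exposed 16 h at 37C, 5% CO2, to compound with 3 nM final calcitriol agonist.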
# [11] = target: Peroxisome proliferator-activated receptor delta (Homo sapiens) (UniProt Q03181); assay: qHTS assay to identify small molecule agonists of the peroxisome proliferator-activated receptor delta (PPARd) signaling pathway (AID 743212; calls by dose curve; also: % is scaled to controls: 0 for no effect and ±100 for the full control effect); conditions: HEK293H PPARd-UAS-bla, beta-lactamase FRET ratio, 17 h; activation: at 62.6 µM (top of the series) unless noted
# Procedure, shortened: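 Quantitative high-throughput agonist screen in a HEK293H beta-lactamase reporter line under UAS control. Compounds in DMSO, at 37 C. Fluorescence read after 2 h with FRET substrate at room temperature.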
# [12] = qHTS assay to identify small molecule antagonists of the peroxisome proliferator-activated receptor delta (PPARd) signaling pathway - cell viability counter screen (AID 743213); conditions: PPARd-bla HEK293H viability, CellTiter-Glo luminescence, 17 h; viability change, negative = cytotoxic: at 62 µM (top of the series) unless noted; also: potency is read from the fitted curve at half-maximal effect; nearly all actives have a fitted effect of over 50% in size
# Procedure, shortened: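 HEK293H cells with the PPARd UAS-bla reporter, co-treated 17 h at 37 C with compounds and L165041 (300 nM final), were lysed with CellTiter-Glo. Luminescence indicated viable cell content.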
# [13] = target: Peroxisome proliferator-activated receptor delta (Homo sapiens) (UniProt Q03181); assay: qHTS assay to identify small molecule antagonists of the peroxisome proliferator-activated receptor delta (PPARd) signaling pathway (AID 743215; active = well fitted inhibition curve with a large enough effect in the signal ratio in the repeat runs, not every such curve was filed as active; inconclusive = weak or mixed curves, or effect the other way; inactive = no such curve, though single readings can be large or run the other way; the % refers to the signal ratio); conditions: HEK293H PPARd-UAS-bla, beta-lactamase FRET ratio, antagonist, 17 h; ratio activity, negative = inhibition: at 62 µM (top of the series) unless noted
# Procedure, shortened: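 Antagonist-mode beta-lactamase reporter screen: HEK293H cells with UAS-bla under PPARd control, stimulated by 300 nM L165041 (final) alongside test compound for 17 h at 37 C, then FRET fluorescence after 2 h substrate incubation.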
# [14] = target: Vitamin D3 receptor (Homo sapiens) (UniProt P11473); assay: qHTS assay to identify small molecule agonists of the vitamin D receptor (VDR) signaling pathway (AID 743222; calls by dose curve; also: % is scaled to controls: 0 for no effect and ±100 for the full control effect); conditions: HEK293T VDR-UAS-bla, beta-lactamase FRET ratio, 16 h; activation: at 63.5 µM (top of the series) unless noted
# Procedure, shortened: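 Agonist activity measured in VDR-bla reporter cells. Exposure 16 h, 37C, 5% CO2; detection by B/G FRET substrate, 2 h RT.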
# Tags tell the direction and shape of the fitted curve or compound fluorescence and quenching.
# Sequence of UniProt P11473 (P11473 whole entry, looked up): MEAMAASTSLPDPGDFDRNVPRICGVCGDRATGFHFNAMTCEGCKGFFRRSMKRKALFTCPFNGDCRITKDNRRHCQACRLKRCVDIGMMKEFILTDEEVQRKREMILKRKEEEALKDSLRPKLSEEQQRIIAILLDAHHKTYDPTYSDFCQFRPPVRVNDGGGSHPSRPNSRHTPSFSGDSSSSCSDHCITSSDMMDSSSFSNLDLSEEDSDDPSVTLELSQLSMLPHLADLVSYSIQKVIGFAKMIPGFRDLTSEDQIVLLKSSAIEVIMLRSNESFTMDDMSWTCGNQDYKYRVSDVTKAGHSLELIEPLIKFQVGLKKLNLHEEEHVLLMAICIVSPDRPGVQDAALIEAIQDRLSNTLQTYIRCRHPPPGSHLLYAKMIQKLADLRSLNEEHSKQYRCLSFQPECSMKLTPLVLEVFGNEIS
# Sequence of UniProt Q03181 (Q03181 whole entry, looked up): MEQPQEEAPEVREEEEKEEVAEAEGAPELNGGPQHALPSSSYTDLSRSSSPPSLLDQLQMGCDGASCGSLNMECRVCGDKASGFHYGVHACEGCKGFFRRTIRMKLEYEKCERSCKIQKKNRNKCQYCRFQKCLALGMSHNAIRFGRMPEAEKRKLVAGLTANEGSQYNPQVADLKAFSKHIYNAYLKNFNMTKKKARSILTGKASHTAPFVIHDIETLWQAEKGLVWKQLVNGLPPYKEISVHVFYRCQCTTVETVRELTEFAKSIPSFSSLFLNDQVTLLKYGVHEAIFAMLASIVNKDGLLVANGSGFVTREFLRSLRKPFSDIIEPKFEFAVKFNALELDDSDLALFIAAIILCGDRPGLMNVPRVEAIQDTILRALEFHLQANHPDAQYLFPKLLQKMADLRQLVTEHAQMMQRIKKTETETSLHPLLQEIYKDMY
# Sequence of UniProt Q96RI1 (Q96RI1 whole entry, looked up): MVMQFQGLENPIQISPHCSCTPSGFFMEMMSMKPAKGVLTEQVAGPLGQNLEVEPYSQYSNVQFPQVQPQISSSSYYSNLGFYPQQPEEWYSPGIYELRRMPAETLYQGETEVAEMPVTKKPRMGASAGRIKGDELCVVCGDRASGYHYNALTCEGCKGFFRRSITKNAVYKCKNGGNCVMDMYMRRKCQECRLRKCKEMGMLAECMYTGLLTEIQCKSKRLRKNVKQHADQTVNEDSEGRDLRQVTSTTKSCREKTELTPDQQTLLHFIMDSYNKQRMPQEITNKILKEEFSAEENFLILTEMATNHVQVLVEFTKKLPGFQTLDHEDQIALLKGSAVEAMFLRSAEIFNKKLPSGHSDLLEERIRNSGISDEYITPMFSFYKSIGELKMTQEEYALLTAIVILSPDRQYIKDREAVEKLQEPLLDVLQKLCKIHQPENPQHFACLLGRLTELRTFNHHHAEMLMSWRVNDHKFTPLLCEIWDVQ
structure (smiles),measurement,setting,value
CC(C)(CO)[N+](=O)[O-],Potency,[1],"inconclusive: 54.9 µM [cytotoxic, single point]"
same,Potency,[2],inactive
same,"activity change, negative = inhibition",[3],inconclusive: 22.5%
same,Potency,[4],"inconclusive: 0.243 µM [inhibitor, single point]"
CCNC(=O)NCCCOc1cccc(CN2CCCCC2)c1,Potency,[5],inactive
same,"activity change, negative = inhibition",[6],inconclusive: -25.6%
same,Potency,[7],"inconclusive: 13.3 µM [rising, full curve, poor fit]"
same,"activity change, negative = inhibition",[3],inconclusive: -29.4%
same,Potency,[8],inactive
same,Potency,[4],inactive
C1=C\CC/C=C\CC/C=C\CC/1,Potency,[9],inactive
same,"activity change, negative = inhibition",[3],inconclusive: 2.52%
same,Potency,[10],inactive
same,Potency,[4],inactive
OCCCC1CCCCC1,Potency,[9],inactive
same,Potency,[10],"inconclusive: 0.195 µM [cytotoxic, single point]"
same,Potency,[4],inactive
CC1=CCC2CC1C2(C)C (stereo not drawn),Potency,[11],inactive
same,"activity change, negative = inhibition",[3],inconclusive: -31% and inconclusive: 2.83%
same,Potency,[8],inactive
same,Potency,[10],"inconclusive: 21.5 µM [cytotoxic, single point]"
same,Potency,[4],"inconclusive: 0.19 µM [inhibitor, full curve, poor fit]"
CCN1CCCC1CNC(=O)c1cc(S(N)(=O)=O)ccc1OC (stereo not drawn),Potency,[12],"inconclusive: 15.5 µM [rising, partial curve, poor fit]"
same,Potency,[3],inactive
same,Potency,[4],active: 54.5 µM
CC(=O)CC(c1ccc([N+](=O)[O-])cc1)c1c(O)c2ccccc2oc1=O (stereo not drawn),Potency,[13],inactive
same,"activity change, negative = inhibition",[3],inconclusive: 15%
same,Potency,[4],"inconclusive: 29.8 µM [inhibitor, partial curve, poor fit]"
O=C(CCCl)NCc1ccccc1,Potency,[2],"inconclusive: 11.9 µM [rising, partial curve, poor fit]"
same,Potency,[14],inactive
same,Potency,[3],inactive
same,Potency,[8],"inconclusive: 7.5 µM [rising, partial curve, poor fit]"
same,Potency,[4],"inconclusive: 33.5 µM [inhibitor, partial curve, poor fit]"
